From the supplement of paper PMC10126150
Values marked as one replicate rest on one cluster of the flow cell; about a third of the high ones do not repeat.

Tested on: ATP
Test: switch fluorescence ratio, 500 uM ATP over buffer (Cy3 cluster intensity, sum of 5 cycles each) (fold (ratio)); higher = stronger signal-on switching upon ATP binding; sequences stand for … in TCGTCGGCAGCGTCAGATGTGTATAAGAGACAGTTTTTTTTTTTTTTTTTTTTTTTTT…TC
Conditions: aptamer strand: ATP DNA aptamer (quencher-CACCTGGGGGAGTATTGCGGAGGAAGG + anchor), 100 nM annealed; ATP concentration: 500 uM; one replicate
How it was run: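 Between each of five buffer/ATP cycles, the flow-cell was stripped with NaOH and re-annealed. Each cycle imaged Cy3-labelled switching-strand clusters, annealed to 100 nM quencher-labelled ATP aptamer on a modified Illumina MiSeq flow-cell, first in selection buffer and then after 15 min with 500 uM ATP at 22 °C. The fluorescence ratio is summed target-cycle over summed buffer-cycle Cy3 intensity per cluster, averaged per switch-domain sequence, with clusters outside 100-1000 RFU excluded.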
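Also: ATP exposure 15 min at 22 °C before imaging.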

Row | Sequence | switch fluorescence ratio
1 | GATAAATCAG | 1.02
2 | CAGTAGGGAC | 1.01
3 | TTTGACGGCC | 0.979
4 | ATGGCGAGTC | 1.04
5 | TCCAGGCGGA | 1.01
6 | TACTAGGTGG | 1.06
7 | ATTATTGTTA | 1
8 | GTTTTTAGTA | 1
9 | TATTCAACAT | 1.23
10 | GCCAGACACC | 1.04
11 | GGCATATTGC | 1.03
12 | CCCTGCCATA | 2.31
13 | CTCAAGGCTC | 1.19
14 | GAAAGGAGAG | 0.984
15 | AACCATCAAC | 1.01
16 | TTTAAAGGGC | 0.967
17 | AGTAAGTGTC | 1.21
18 | AGTCGTAGAA | 1.03
19 | GTTAGTTCTT | 0.976
20 | CCACCCGTCC | 1.46
21 | CGTCTCTCTT | 1.03
22 | TTATTGGGTA | 1
23 | AAGCGGCACG | 0.989

Row | Sequence | switch fluorescence ratio
24 | CAGCTCCTTC | 1.03
25 | TGATTGCTCG | 0.981
26 | ATGTGACCCA | 1.01
27 | GAACCCCCCA | 1.03
28 | TATGTATACG | 1
29 | GGAGTAGTCT | 1.09
30 | TTACGAGCGT | 1.01
31 | TCGGTTATTA | 1.02
32 | TTTGCCATCC | 1.02
33 | TGTCATACTA | 1.27
34 | TGTTCGGGGT | 0.968
35 | TAGTGTCCGG | 0.932
36 | TTACGGTTG | 1.01
37 | ACTCATGACC | 1.03
38 | TAGAAGTTGG | 0.969
39 | GAGGCTTATG | 1.02
40 | TAAGGTGTTC | 1.02
41 | TGGAAAAATA | 1
42 | GTTATAAATA | 1.02
43 | GGTAATTCTA | 0.99
44 | ACGCGACTTC | 1.27
45 | GAAGAGCGA | 1.01
46 | CGAGCCGGTG | 1.19

Row | Sequence | switch fluorescence ratio
47 | TACGTGGTTA | 1.02
48 | ACTATTCGGG | 1
49 | CGGTGCCCCA | 0.954
50 | TTAGACTGTT | 0.944
51 | ACCGAATGTG | 1.05
52 | GCGGGCATTC | 1.1
53 | AGGCCTACGC | 1.24
54 | AGGACGGATC | 1.05
55 | AACATGAATT | 0.983
56 | ACTCGTCGCT | 1.05
57 | TAAGTAGAGA | 0.977
58 | TCTAACCTTA | 1.1
59 | ATATCATTCC | 1.42
60 | TGGCCACTTG | 1.01
61 | CTAACCTTTG | 1.03
62 | AATTTACTTT | 1.1
63 | TCTGTTCTTA | 1
64 | ACTGAAGACT | 1.02
65 | AGAGTAGTAG | 0.974
66 | AAGAAGGTTC | 0.987
67 | CCAAGCTGTG | 0.978
68 | GGGACGCTTT | 1.01
69 | AGGACGCTCT | 0.98

Row | Sequence | switch fluorescence ratio
70 | CTGGCTGCAG | 0.987
71 | CATGTCCAAA | 1
72 | CTCAGAGT | 1.02
73 | GAAGCCCTTA | 0.992
74 | AGAGGGGTGG | 0.954
75 | TGCGATAGC | 0.984
76 | AGAGATTCCC | 1.03
77 | CATTTGCTGT | 0.968
78 | ACAGGTAAGT | 0.986
79 | AAGAGTACTC | 1.04
80 | AAATTTTGCG | 0.995
81 | TGGACTTTGT | 1.01
82 | TCGAAAGGAT | 0.972
83 | GGTACTGGCT | 1.02
84 | TTCGATTTTG | 1.01
85 | TCTCTAGGGA | 1.01
86 | GCATATCGAA | 1.04
87 | TCGATCTTGA | 1.01
88 | TTGGCTTCTA | 1.04
89 | ATTCGCGGTA | 1.02
90 | GGGAATTCCT | 0.964
91 | CTTCAGGGAG | 0.991
92 | TGACGCGTAG | 1.07

Row | Sequence | switch fluorescence ratio
93 | ACTGGACATG | 1.09
94 | CCATTGACGA | 1.06
95 | AGGCTTTTCT | 0.998
96 | TTACATGGT | 1.02
97 | GGAAGGCTTT | 1.05
98 | GTGTGGCATG | 0.971
99 | CCCGCGCATG | 3.19
100 | CGAACAAGGA | 1.19
101 | TAAATTGGAC | 1.06
102 | TCCTCACTGG | 1.12
103 | AGACGTCTAA | 1.04
104 | ATCGGTGGGT | 1.03
105 | ACGAGGAGGA | 1.02
106 | TCGCGCCACT | 2.28
107 | TACGGGCAGC | 1.04
108 | TAGAAATACG | 1.15
109 | GCTGCAAC | 2.15
110 | CAGGTCGG | 1.06
111 | GGAACTGGTT | 0.899
112 | TCAAACTTTT | 0.969
113 | ATGTCGCCTA | 1.03
114 | GATATAGGAC | 1.05
115 | CCATTGCGAT | 4.79

Row | Sequence | switch fluorescence ratio
116 | GACGGCTAAG | 0.976
117 | ACCATGGTCA | 0.975
118 | GACAGCACAT | 1.48
119 | CGATGCTCG | 0.949
120 | GGCTAAAGGT | 1
121 | TGCCTATGTT | 0.98
122 | CCGGAATTTC | 2.57
123 | GCCCCGAGGA | 1.07
124 | GGGAAGGGCC | 1.05
125 | TCTTGCGGAT | 1.01
126 | AGCAGGCGGC | 1.04
127 | AAGGCACGCC | 0.959
128 | CGGGAGTTGG | 1.03
129 | TCTGCTGGCT | 1.04
130 | TCTGTCCGCG | 1.12
131 | TTATATAGCT | 1.06
132 | TAACTTCGAA | 0.988
133 | TAATCAGCA | 1.03
134 | GCAATTAGGA | 1.1
135 | AAGACTATAC | 1.48
136 | TACGGAAAAC | 1.31
137 | GGGTGCCCGA | 1.03
138 | TGCCCGAAGG | 0.976

Row | Sequence | switch fluorescence ratio
139 | GTTGACCGGG | 1.01
140 | CTCGGACAGC | 1.02
141 | GTGAGGTCG | 0.954
142 | ATTGTCGTCT | 1.14
143 | GTGTGCTTCA | 1.02
144 | AGTGCCGCTC | 1.02
145 | CATATCGTGT | 0.973
146 | CGGTCCATTA | 0.912
147 | GCTCTAGAGT | 1.01
148 | CTGGGAGCAT | 1.53
149 | CTGACTCTT | 1.03
150 | AAGCGCTAAT | 1.03
151 | CAACCATAGC | 1.08
152 | TACGCCCGGT | 1.01
153 | ATAGCAAAAA | 2.96
154 | TTAGGCTATC | 0.983
155 | GCTCTAGGGC | 0.981
156 | AAAGTATGGA | 0.957
157 | GCTACAGTC | 1.03
